80 sequences from the supplement of paper PMC10681739 can be followed below.

± gives the standard deviation of the averaged measurements. Over roughly 4,100 sequences, “arbitrary fluorescence units” has its median near 780; the highest 2% begin near 22,000. Some of the results follow.

For this test, the target named is T1, ETS1 (UniProt P14921).
T1 sequence: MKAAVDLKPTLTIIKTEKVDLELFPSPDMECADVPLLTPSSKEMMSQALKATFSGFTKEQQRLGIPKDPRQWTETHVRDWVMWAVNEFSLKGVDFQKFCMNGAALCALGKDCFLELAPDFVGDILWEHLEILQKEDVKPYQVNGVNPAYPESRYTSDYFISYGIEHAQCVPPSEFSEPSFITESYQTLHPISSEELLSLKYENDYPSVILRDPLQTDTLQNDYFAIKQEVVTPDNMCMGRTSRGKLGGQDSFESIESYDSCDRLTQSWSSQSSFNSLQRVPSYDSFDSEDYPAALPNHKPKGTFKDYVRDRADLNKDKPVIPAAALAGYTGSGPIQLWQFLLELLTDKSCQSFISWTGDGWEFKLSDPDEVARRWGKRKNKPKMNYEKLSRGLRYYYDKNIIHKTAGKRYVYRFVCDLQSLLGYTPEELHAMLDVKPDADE
Description: ETS1 binding intensity (PBM fluorescence), ETS1 alone (arbitrary fluorescence units); higher = stronger binding. As to conditions: ETS1 concentration 1 nM; RUNX1 concentration 0 nM. Put shortly: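 Full-length recombinant human ETS1 (1 nM, no RUNX1) was incubated, per standard PBM protocols, on double-stranded Agilent 4 × 180k arrays of 36-bp genomic probes whose RUNX1 partner site was mutated. Bound ETS1 was detected with anti-ETS1 antibody (Cell Signaling Technology 14069) and Alexa488-conjugated secondary antibody, then scanned on a GenePix 4400A. Binding level is spot fluorescence intensity, summarised over replicate spots (four printed per sequence) and not normalised.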
In turn, AGATTTATGTGATAAATGGTTTCAGGGAAGTGGTTC displayed an ETS1 binding intensity of 413.
As for CCGCTTCCGGGACGCGAATCGCTCTGGGGCTGCGTC, the figure is 15600; as for GGCTCCAAAACTACAGGGCGGAGGCTTCCGCGCGGC, 349.
The sequence TGCGATGCCGAAGTGGCTCAGTGCTTCCTGGCCGAG came in with an ETS1 binding intensity of 407.
As for GATGCAGTGTAGTTTAACGGTTTCCTGACTTTGAAG, the figure is 603 ± 39; as for CTTCGACCCCGGAAGCGCTAACAACCCCGGGGGCCG, 4060; as for GGGGAACTCAACGCGCACTAAGAGCGGAACGTGAAC, 392.
As for CACTGGCAAGGTGGCTTGAGAACTTCCTCTTTCATC, the figure is 922; as for TCACTAATTGTGAGGGGCCCCAGGATGTGTTTTGGT, 369; as for CTCGGCGCCCGCTGTCCATGGACCGGAACCTCGGGC, 380.
On to AACAGTTGCTTGCTGGATATGCTTCCTTGGATCTGT, for which the ETS1 binding intensity was found to be 390.
In the case of GACGGAGGATGTGTAGTTCTGTCTCCTTACGGCCTC, the ETS1 binding intensity worked out at 497.
Sequence CAGCCGACTTCCGGGGTGGGGCTTGCTGCCGCTGAG registered an ETS1 binding intensity of 19300.
The sequence TTGTTCGCTTCGGCGACCAGCTCCGGAAAGCGCGGC came in with an ETS1 binding intensity of 347.
As to ATACCGGCGCATCCGGATTTTGAAGCTGCAGTAGTT, the ETS1 binding intensity worked out at 4600.
As for CAGCAGTGGATTTGCAGGAGCAGGCTCCATCCGCAG, the figure is 574; as for ATGGATATAAAGCTCAAACAGGAAGTGATAAAGCAA, 5760.
Sequence CAGGGGGCCCCAAATGCCGCTCTTCCTGCCCAGGTC came in with an ETS1 binding intensity of 984.
On to GCTCGGAAATACCAATATTGGGCTCTGGTATTTGAA, for which the ETS1 binding intensity worked out at 440.
As for CTTGGCGGAAGTGGTGTGGGGGAGGTAGCCCTCAGT, the figure is 6430; as for ACAACCCGCTCTCTGGCGGGGCTTCCGGTCGGGAGG, 6280.
As to TTTGTGACTTAACGACACCTACATTTCCCATTTAAG, the ETS1 binding intensity was determined as 496.
In turn, TGGGGTTTCCGAGCCGCCCCCGAACTGCGCACCCGA registered an ETS1 binding intensity of 480.
TACCGGCGTTAATATAGTAAGGGCGGAAGTTCTCCT showed an ETS1 binding intensity of 1190.
With GACTGGACAACTTCCTGGTGGAAAAGCGCGACTCTT, the ETS1 binding intensity came out at 7240.
As for GGAAAAAAAGCACCCATGCTCCTGGACTTCCCCTTC, the figure is 322; as for TCGGTGAAGGACGGAAGATGATAGCGACATTTCTTC, 428.
As for TCTTTAAAACCCGGAAGTTCCTGTCGTTCATACGCT, the figure is 5970.
As for CTGTCAGGATGTTGGCTTGTGAGCCTACAATCCTCT, the figure is 1170; as for AATCTGTGATTTCCACTGTTAGAATTTACTTCCTCT, 627; as for GCCACACCCCCTTCCTGTTGTGTGAGGGGATTCATG, 4100.
Regarding CCAGAGCACATCCTACACGCACCCCAACCTGAAAAC, the ETS1 binding intensity is 1780.
The result for TCTTCGGCCCTACCTCAGCCAAGGACTTCCTCAGAA reads 427; that for AAAAAATGGAGGAAGTTACCTCCAGTGGATTTCTGG, 1140; that for GCACTGTGGGAGGAAGTGGGTATGTGCTGAGCTCTT, 1530.
As for GCTCTGCAGGATGTGGCTGTGAGCGCAGTGAGGAGC, the figure is 1770; as for CCGCGCCGCTTCCTCCAGACACCTCAAGGGGGTGCT, 1650; as for CCACACCTAACGACAGGGGAGGTTGGGAAGTGAAGT, 403.
TCCTCCCTTCGTGGGCGCTTCCTGCGTCGCGAAAGT returned an ETS1 binding intensity of 1410.
The result for CAGCCTTGCCGGAAGGCAGAGTTTGGGGTCAGACCG reads 1140; that for CCATAGCGACCTCGGCCGAGCGAACCGGGAAACGGC, 368.
As for AATCCTGACCTTAAAAACCTCTGAATGTTTCCTTGT, the figure is 442; as for ACAACTCCCAGAAGGCATTGGGCGGAACACCACGGT, 355; as for TTTAAACCTACAAGCAGGCCCCTGCCCCTTCCTGGA, 359.
The result for AGACCCTGTTGTCACATGGCAGGAAGTCTGCAGGTT reads 1060; that for TGGCCTGCAGCAGTCACGTGGCCGCGCTTCCTCGCA, 302; that for CCGCCGCGACTGCAGGCCTCCGTTCCGCCGGGGTAA, 389.
The sequence CCTCAAAACCCGGAAACGCCTTGGGGGGCAGTGTGG registered an ETS1 binding intensity of 3860.
In turn, GTTGGCGTAATCGCTAGGTTCTCTGGGAAGTGTAGG registered an ETS1 binding intensity of 389.
The result for CTAAAGGCAGGGACTACAAACACTTCCTGTTTGTGT reads 7710; that for CCCAAGCTACGGAAGTTAAACCCCAAACATGAAATC, 1450.
As for GAGTCACCAACCAGCGCCATGGGCCGGAAGCCACCG, the figure is 764; as for TGCCGCCTTCATGGTCACCGGAACCCGCTGTCGTAC, 414.
For the sequence AGGACGGGCGGAAGTGGCTGCAGTGGATGGTGGGAG, the ETS1 binding intensity was found to be 6740.
As for TCCCTCCGCTGCCGCGGGCCGGAACTTTTGTCGATA, the figure is 428; as for TTATCGGAACTGCTGGTTGGGCAGGAAGCAGCATGA, 817.
The result for GGTCTTTTCTGTCGTTCTGTCACTTCCTTTGTAAGT reads 1330; that for AGGCGGGCTGTGATTAAGCAGTGCAGGATGTAGGCT, 355.
For the sequence GCTCTGGCCGCTCTGCCGCGCGCCGGAAGCAGCCTG, the ETS1 binding intensity was determined as 812.
As to AATTGCGCATCTTTTCCGCCTACCGTACGGCCCCGC, the ETS1 binding intensity was 836.
The result for ACTCCGCCCCTTCCGCCTGGCGATTCCACTTCTCGG reads 2170; that for CGGGTTGGGCAGGAAGCAGCATGACAGCAGTGGGTC, 1900.
Take GCTGCGCTTCTCCGGGATAGACTTCCGGCCGCCGGC: the ETS1 binding intensity amounted to 7550.
The result for AGCTGCTTCCTGCATCTCAGGCCTTTCTCCGGCCTC reads 6300; that for GAGGAGGCTGTGCTCTGTGTACCCAGGATGTGCTAA, 378.
The result for CACGCCTGCGGAAGATGAAAATCACACGTCATGCAG reads 453; that for AATGGCGGGAAGTAAGAGGAACGTGGGCCTGACTGC, 744; that for GCACTCATTTCCTGTCCCCTGTAGTTTAAAGGTTTT, 19700.
GTGTTGTCAGATACAGCCCAGCCACAGGAAGAGGCA had an ETS1 binding intensity of 466.
The result for ACGGTTCTGACTGGGGTGATTAGGAAACAGGGCCGC reads 361 ± 49.
The result for TGCATGCAACAGGAAGTGGGGTGTGATTTGTTCTGG reads 4820; that for CTAAGTGCTCTTCCTGCCAACCTGTGAGCGCCTGGC, 4250.
As for CACCGACCGGAAGGGCCCCAAGGATCCCCGCTGCAG, the figure is 6690; as for CTGAGCAGTGTGCTTGGCCCTCACTTCCTCATCGGC, 512.
GCGCGCTTCCGCCTTCATGCTAGCAACGCCCTCAGT: the ETS1 binding intensity is 8980.
As for AGGGACGCTGCAGCTGAAGTGGACGGAACTGCCAAG, the figure is 382.
As for GACAGGCGCATCTGCTGAGTCATAAGGATGTGGGCC, the figure is 339.
The result for TCCTTTTCCGGTGGCGGCGCCGCGCGTTGGGGTTGT reads 12100; that for AGGGTTTATGGGACCTGGTGACTCACGGGATGTGGG, 332; that for CCATATCTGGCTTCCTAAGGAGGAACCCCAAATCGC, 419.
